Experimental data taken from PubChem BioAssay AID1963420 (Molecular Pharmacology Branch, DTP, NCI, 2024).
Certain results were filed several times, with different values. This is not the full list of results. The source may hold further records. Results that share an entry repeat one measurement (runs, samples, wells, individuals or studies). A date in brackets names the month of the test. Counts like (3×) give the number of equal values in this list.

Test system: 494315-158-R-J1-PDC complex spheroid growth, percent test/control
Assay: Anticancer human tumor 494315-158-R-J1-PDC patient-derived soft tissue sarcoma cell line growth inhibition [Asc]
Conditions: for viability, T/C: stronger effect = lower value
Procedure: Multicellular complex tumor spheroid response to apoptosis pathway targeting inhibitors Alrizomadlin, Pelcitoclax, and Dasminapant in combination with a variety of drugs and investigational agents in selected tumor cell lines
The MDM2 inhibitor alrizomadlin, the Bcl-2/Bcl-xL inhibitor pelcitoclax, and the IAPs inhibitor dasminapant were evaluated both individually and in combination with standard of care and investigational anticancer small molecules within a complex spheroid model of solid tumors. . Complex spheroids include a stromal component modeled by human endothelial cells (HUVEC) and fibroblasts modeled by human mesenchymal stem cells (MSCs). The concentration ranges selected for each drug and investigational agent were based upon clinically achievable concentrations if the clinical Cmax of the agent was known.
Compounds. The drugs and investigational agents: alrizomadlin (APG-115; NSC831270), pelcitoclax (APG-1252; NSC835773), dasminapant (APG-1387;NSC834197), TAK-243 (NSC785004), copanlisib (NSC809693), olaparib (NSC753686), talazoparib (NSC767125), cobimetinib (NSC 768068), eltanexor (KPT-8602, NSC 794443), abemaciclib (NSC 768073), sotorasib (NSC818433), adagrasib (NSC 831453), MRTX-1133 (NSC 836407), Iadademestat (ORY1001, NSC 806812), and RMC-4630 (NSC839698), were obtained from the NCI Developmental Therapeutics Program Chemical Repository. The FDA-approved anticancer drug set is available from the Developmental Therapeutics Program at https://dtp.cancer.gov/organization/dscb/obtaining/available plates.htm. […] The stock solutions were prepared in dimethyl sulfoxide (DMSO, Sigma-Aldrich, St. Louis, MO, cat. D2650) at 800-fold the tested concentration and stored at -70 degrees C prior to their use. All drugs and investigational agents were tested over a range starting from a high concentration at or near the clinical Cmax and decreasing in half-log increments. If the clinical Cmax for an agent had not been determined, the highest concentration tested was 10 microM.
The patient-derived cancer (PDC) cell lines include five colon adenocarcinomas: 186277-243-T-J2-PDC, 616215-338-R-J1-PDC, 439559-082-T-J2-PDC, 463943-066-T-J2-PDC, and 519858-162-T-J1-PDC; three pancreatic carcinomas: 323965-272-R-J2-PDC, 521955-158-R6-J3-PDC, and 521955-158-R2-J5-PDC; two uterine sarcomas: 327498-152-R-J2-PDC and 993429-296-R-J1-PDC; two rhabdomyosarcomas: 755483-174-R-J1-PDC and 772245-204-R-J1-PDC; two soft tissue sarcomas: 126254-015-R-J1-PDC and 494315-158-R-J1-PDC; two malignant fibrous histiocytomas: 317291-083-R-J1-PDC and 596521-263-R-J1-PDC; two breast carcinomas: 171881-019-R-J1-PDC and 885512-296-R-J2-PDC; and one ovarian carcinoma: 6556581-035-R-J-PDC were obtained from the NCI PDMR, (https://pdmr.cancer.gov). The established cell lines HSSY-2 synovial sarcoma (RRID:CVCL 8719), SYO-1 synovial sarcoma (RRID:CVCL_7146), MPNST malignant peripheral neural sheath tumor were obtained from the Sloan Kettering Institute. The following established cell lines were purchased from the American Type Culture Collection (ATCC, Manassas, VA), Sor the received from the NCI repository:, PANC-1 pancreatic carcinoma (CRL-1469, RRID:CVCL_0480), OVCAR-5 ovarian carcinoma (RRID:CVCL_1628), OVCAR-8 ovarian carcinoma (RRID:CVCL_1629), , MCF-7 breast carcinoma (CRL-12584, RRID:CVCL_0031), MDA-MB-231 breast carcinoma (CRL-12532, RRID:CVCL_0062), NCI-H1876 small cell lung carcinoma (CRL-5902, RRID:CVCL_1503), NCI-H510A small cell lung carcinoma (HTB-184, RRID:CVCL_1565), NCI-H1417 (CRL-5869, RRID:CVCL_1469), and NCI-H196 small cell lung carcinoma (CRL-5823, RRID:CVCL_1509). Dr. Peter Houghton (Greehey Children's Cancer Research Institute, University of Texas Health Science Center, San Antonio, TX) provided Rh-18 rhabdomyosarcoma (RRID:CVCL_1659). Pooled donor human umbilical vein endothelial cells (HUVEC, Lonza, cat. CC-2519) and human mesenchymal stem cells (hMSC, Lonza, cat. PT-2501) were purchased from Lonza (Walkersville, MD).
Cell Culture. […]
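Also: compound exposure lasted seven days after spheroids formed for three days.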

SMILES: CCN1C(C(=O)NC23CCC(C(=O)O)(CC2)CC3)C(c2cccc(Cl)c2F)C2(C(=O)Nc3cc(Cl)ccc32)C12CCCCC2 (stereo unspecified)
- viability, T/C (compound alone 0.03 µM): 96.1, 102, 91.6, 105, 106 (2×), 91.5, 118, 101, 92.7, 85.8, 91.7, 84.7, 89.1% [2022-09] and 104% [2022-10]
- viability, T/C (compound alone 0.0949 µM): 93, 94.8, 94.3, 112, 109, 93.5, 98.9, 91.6, 94.2, 94.7, 92.7, 84.9, 84.8, 95% [2022-09] and 98.5% [2022-10]
- viability, T/C (compound alone 0.3 µM): 106, 88.2, 114, 109, 103, 96.2, 98.2, 108, 89.2, 102, 91, 96.5, 101, 80.1% [2022-09] and 102% [2022-10]
- viability, T/C (compound alone 0.949 µM): 101, 80.5, 98.3, 102, 118, 99.9, 95.5, 91.2, 85.9, 100, 82.8, 92.9, 90.3, 81.4% [2022-09] and 112% [2022-10]
- viability, T/C (compound alone 3 µM): 88.2, 106, 87.7, 86.5, 91.4, 100, 87.8, 87.2, 90.1, 85.9, 82.8, 87.5, 80, 78.3% [2022-09] and 101% [2022-10]

SMILES: CNC(C)C(=O)NC1CN(S(=O)(=O)c2cccc(S(=O)(=O)N3CCC4CCC(C(=O)NC(c5ccccc5)c5ccccc5)N4C(=O)C(NC(=O)C(C)NC)C3)c2)CCC2CCC(C(=O)NC(c3ccccc3)c3ccccc3)N2C1=O (stereo unspecified)
- IC50 (compound alone, run of 10/03/2022): 118, 92.4, 335, 121, 158, 75.8, 145, 264, 148, 168, 138, 92.9 nM
